In the RNAGym collection of RNA variant scans (doi:10.7554/elife.90254):
Read counts are not given, so values of variants with three or more changes are uncertain.

B1: OR4K15 (parent)
chain: GUUAACGGUCAUAGGCCAUGGAAACUAGGAGCACCAUUUCGCUGCCAGUGAAGAAAUGAACAAAGAAAAUCUGGGCCAGGCAGGCAUCAAAAGAAAUAGUCUUGCGCUCAACCAGAAAGUCUGUAAUCAUUUUAAGGGUA

Variants of: B1
Assay: self-cleavage, relative activity (ratio to wild type); higher = more cleavage; in vitro, sequencing; the parent is a self-cleaving ribozyme
Work on A18U A54G A63G U103A U132C yielded a self-cleavage of 0.39. Work on A18U A30U A56G G106A U120G U127C yielded a self-cleavage of 0. Work on A18U C35U A86G A116G yielded a self-cleavage of 0.53. Variant A18G G65U A111C has a self-cleavage of 0. U19C A52G A96G showed a self-cleavage of 2.32. Work on A18G U43C A90U A92U A110G yielded a self-cleavage of 0.41. With A18G A92G A140G the self-cleavage was 2.37. U19C A22U A54G showed a self-cleavage of 1.86. Work on U19C A22U U38C A78C A94G U132C yielded a self-cleavage of 0.11. For U19A A63G A68U, the self-cleavage was 1.89. U19C A23G U131C A135U gave a self-cleavage of 2.12. For A18U U39A A69G C77U G106U U108C A114U U133C, the self-cleavage was 0. With A18U U43C U49G G136A the self-cleavage was 0.5. Work on U19A U26C A64G yielded a self-cleavage of 1.12. Work on A18U U38C A69G A95G A125U U130C yielded a self-cleavage of 1.56. A18U A23G A30G A56G showed a self-cleavage of 1.12. Work on A18G U43C A54G A95G yielded a self-cleavage of 2.38. For A18U A22G U70A, the self-cleavage was 0.87. A18G U39A A47G A63G A92G gave a self-cleavage of 1.08. A18G U37C A68G gave a self-cleavage of 1.21. Variant U19C A68G U72C has a self-cleavage of 0.04. Work on A18G A82G U87A A114G A117G yielded a self-cleavage of 0.38. In the case of A18G A33G A64C A89G U122A, the self-cleavage is reported as 0.46. Work on A18U U102C U133A yielded a self-cleavage of 1.93. For A18U A24G U38A, the self-cleavage was 1.48. Work on A18U A55G U120A U122C yielded a self-cleavage of 0.94. A18U U43C U57C A90G U102C showed a self-cleavage of 1.58. In the case of U19A A24G A89G A92G, the self-cleavage is reported as 1.18. With A18G A59G A89C the self-cleavage was 1.43. Work on U19A U37G A110C yielded a self-cleavage of 0.26. In the case of A18G A94G U120C, the self-cleavage is reported as 0.84. With A18G G21U U43A A140G the self-cleavage was 1.76. For A18G U49C A68G A89U A117G U132C, the self-cleavage was 1.89. U19A A30G A114U gave a self-cleavage of 0.04. In the case of U19A A62G C76G C113G, the self-cleavage is reported as 0.02. In the case of A18G U37C U130C, the self-cleavage is reported as 1.19. Work on U19A A24G A27G yielded a self-cleavage of 1.05. For A18G U38C A56G C77U, the self-cleavage was 1.65. Work on U19C A55G G79A U100C U120C yielded a self-cleavage of 0.05. A18U G48A A59G A68G showed a self-cleavage of 0.93. U19C A59G A66U showed a self-cleavage of 1.38. In the case of U19C A55G U100A, the self-cleavage is reported as 0.2. Variant U19C A54G U87C has a self-cleavage of 1.69. U19C U37C A98G A111G gave a self-cleavage of 0. A18U A24C A66G A98C C112U showed a self-cleavage of 0.04. Work on U19C A23G A36U A94G yielded a self-cleavage of 1.34. Work on A18U A52G A63G A116G yielded a self-cleavage of 0.2. Variant A18U U72A A140G has a self-cleavage of 0.2. Work on A18U A33G A56G U130C yielded a self-cleavage of 0.58. With A18G G53U U102C the self-cleavage was 2.11. For A18U A23G A90G A94G U102A, the self-cleavage was 0.52. Variant U19C A24U A96G has a self-cleavage of 0.91. With U19A A52G A94U the self-cleavage was 1.46. With A18G A91G A96G A118G U124C the self-cleavage was 0.56. Work on U19C G58U A94G yielded a self-cleavage of 1.61. Work on A18U U72A A116G yielded a self-cleavage of 0.08. Work on U19C A59G G123A yielded a self-cleavage of 1.18. In the case of U19C A56G A90G, the self-cleavage is reported as 1.26. Work on A18G A36U A67G yielded a self-cleavage of 2.38. Variant A18G A60U A90G A94G has a self-cleavage of 1.48. Work on A18G U26C A36U U43C A95U U132C yielded a self-cleavage of 1.6. In the case of A18U U39C A114U, the self-cleavage is reported as 0.15. Variant U19C A55G A116G has a self-cleavage of 1.05. For A18G A30G U139C, the self-cleavage was 0.89. Work on U19A A86G A117G yielded a self-cleavage of 2.37. For A18G G48A A69G A95G, the self-cleavage was 0.88. Variant A18U U70C U131C has a self-cleavage of 0.29. With A18G C42U U49C A116U the self-cleavage was 0.44. A18G U39A A68G A117G gave a self-cleavage of 1.78. Variant U19C A52G A110G has a self-cleavage of 0.05. Variant U19C A91G A95G has a self-cleavage of 1.64. With A18U U49G A60G A78G A116G the self-cleavage was 0.15. A18G C34U A89G showed a self-cleavage of 1.19. For U19C A86G A95G, the self-cleavage was 1.66. A18U A116G A129G showed a self-cleavage of 0.14. Work on U19C A51G A56G A60G U72A A86G U131C yielded a self-cleavage of 0.13. Work on U19C A23C A51G A62G A116C U124C yielded a self-cleavage of 0.24. Variant A18G U70C A116G has a self-cleavage of 2.15. Work on A18G U19C U57C A90G yielded a self-cleavage of 0.24. A18U A30G A47C A68G gave a self-cleavage of 1.15. For A18U A118G U130C, the self-cleavage was 0.54. Work on U19A G31A A78G yielded a self-cleavage of 0.28. A18U A66U U70C A91U showed a self-cleavage of 0.47. Variant A18G U26C A118G has a self-cleavage of 1.07. Variant A18G A52G A54G C107G has a self-cleavage of 0.06. With U19C U38A A111C the self-cleavage was 0.04. Work on U19C A24G A116G yielded a self-cleavage of 0.29. Variant U19A A36U A78G has a self-cleavage of 0.33. In the case of A18G A33G G74U U122C, the self-cleavage is reported as 0.07. In the case of U19A A36G A56G A114G, the self-cleavage is reported as 0.28. Work on U19A U43C U103A yielded a self-cleavage of 0.69. In the case of A18U A22G A82G A91G A92G, the self-cleavage is reported as 0.67. For A18G C40A U49C A63G U132C, the self-cleavage was 1.12. With A18G A47G A86G U132C the self-cleavage was 0.93. With U19C A47U U57A the self-cleavage was 0.62. Work on A18U A78U A94G yielded a self-cleavage of 0.46. For A18G U43C A118G, the self-cleavage was 1.18. In the case of U19A A59G A64U, the self-cleavage is reported as 1.22. For A18U A64G A69G, the self-cleavage was 1.49. Variant U19C A24C U37C has a self-cleavage of 1.42. With U19C A90G A94G A98G A111G U120C the self-cleavage was 0.01. With U19C A24G A52G U87C U103C A135U the self-cleavage was 1.5. U19C A52G A67U U124G A140C showed a self-cleavage of 0.25. Variant U19C C32U U49A A96G U103C A126G has a self-cleavage of 0.38. Variant A18U A23G U72C C85U A92G has a self-cleavage of 0.2. A18U U39A A62G A94G showed a self-cleavage of 1.34. Work on A18G U39C A66C U72C yielded a self-cleavage of 0.24. Work on A18G U39C A68G U131C yielded a self-cleavage of 1.07. With A18G C42U U70C the self-cleavage was 0.56. A18U A24C U43C A117G gave a self-cleavage of 2.09. With U19C A24G A36C the self-cleavage was 1.81. With U19C A47U A63G A78G the self-cleavage was 0.14. A18U A36G U43C gave a self-cleavage of 2.18. With U19C A63G A64G A110U the self-cleavage was 1.08. A18G A59G C71A gave a self-cleavage of 0.83. For U19A A51U A64C U87A A118G, the self-cleavage was 0.44. U19C A63G A134G gave a self-cleavage of 1.13. In the case of A18G G20A A24G A56G A59U U133C, the self-cleavage is reported as 1.52. With A18G U38C U39A A51G U127C the self-cleavage was 0.95. Work on A18G A59G C61U A92G A140G yielded a self-cleavage of 1.32. A18G U39C G74U gave a self-cleavage of 0.21. U19C A62G U72C A89G A92G U131C showed a self-cleavage of 0.05. U19C U39C A55U showed a self-cleavage of 1.59. For U19C A23G U49C A59G A95G, the self-cleavage was 1.26. With U19A A91G A96G A135U the self-cleavage was 1.17. For U19A U38C A96G, the self-cleavage was 1.78. A18U G80A A95G C105U gave a self-cleavage of 0.12. With U19A A22G A36C A52G A59G A140G the self-cleavage was 0.73. For A18U A52G U108C, the self-cleavage was 0.02. A18G A78G C85U U133A showed a self-cleavage of 0.31. Variant A18G A52G U57A has a self-cleavage of 0.77. Work on U19C A51U A78G A110G yielded a self-cleavage of 0.09. In the case of A18U U43C A59G G73U A86G A118G, the self-cleavage is reported as 0.05. U19A U37C A51G A96C gave a self-cleavage of 1.46. In the case of A18U A54G A60U, the self-cleavage is reported as 1.66. In the case of A18U A23G A24C U39C A55G, the self-cleavage is reported as 1.34. A18G A67G U103C A114G A129G gave a self-cleavage of 0.03. Work on A18U A23G A63G U103C yielded a self-cleavage of 0.96. A18U U19C A23G A33G A90G A95G showed a self-cleavage of 1.5. U19C C40A A135G showed a self-cleavage of 1.22. In the case of U19C A67C A111G, the self-cleavage is reported as 0.04. A18U A52G A92G gave a self-cleavage of 1.21. In the case of A18G A64G A67C U131C, the self-cleavage is reported as 1.04. A18G A68G U102C U103A showed a self-cleavage of 0.24. U19C A22G U38C A116G A126G A140G showed a self-cleavage of 0.74. Work on A18U U49C A126G yielded a self-cleavage of 0.33. With A18U A55G U122A the self-cleavage was 1.03. In the case of A18U G31A G74A U122C A129G, the self-cleavage is reported as 0.13. In the case of U19A G58U A60G A91G, the self-cleavage is reported as 0.53. Work on A18U U19C A67G U102A C113U yielded a self-cleavage of 0.11. With A18G A33G A62U the self-cleavage was 0.41. For U19C C42A U49C A134G, the self-cleavage was 0.21. With U19A A54G A68G A118G the self-cleavage was 0.37. Variant A18G A55G A64G U108A G123A has a self-cleavage of 0. U19C A64U U108C showed a self-cleavage of 0.03. Variant U19C A55G A135G has a self-cleavage of 1.9. Work on U19C A47G A60G A62G A66G U130C yielded a self-cleavage of 0.11. With A18G U100C U131C the self-cleavage was 2.37. With A18G A30G U39C U72A U127C the self-cleavage was 0.15. For U19A U38A G50C, the self-cleavage was 1.35. In the case of U19A A62U U72C, the self-cleavage is reported as 0.31. U19A A36U A92G A116G gave a self-cleavage of 1.21. For U19A U37C C105A, the self-cleavage was 0.03. U19C A55G A59G A94U showed a self-cleavage of 1.81. In the case of U19A A54G A78U G106C, the self-cleavage is reported as 0.01. Work on A18G U49A U131A yielded a self-cleavage of 0.48. U19C A90G A135U gave a self-cleavage of 0.53.
